Measurements reported in the BET-seq Pho4 binding data (Le et al. 2018).
The list shows a part of the results. The energies were worked out here from pooled read counts, against the library average; single values are noisy.

Target: T1, Pho4 (S. cerevisiae) (UniProt P07270)
T1 sequence: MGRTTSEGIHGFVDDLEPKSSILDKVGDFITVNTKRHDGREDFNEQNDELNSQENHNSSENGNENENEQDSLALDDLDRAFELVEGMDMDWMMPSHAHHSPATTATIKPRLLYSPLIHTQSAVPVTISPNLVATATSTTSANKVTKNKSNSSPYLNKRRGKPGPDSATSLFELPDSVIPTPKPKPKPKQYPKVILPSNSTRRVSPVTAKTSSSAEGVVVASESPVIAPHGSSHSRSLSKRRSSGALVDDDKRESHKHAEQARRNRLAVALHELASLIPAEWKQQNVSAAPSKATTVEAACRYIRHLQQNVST
Assay: relative binding free energy (BET-seq); higher = weaker binding
Settings: reference: library average

Relative binding free energy, 0.29 kcal/mol:
GTCAGCACGTGAAGTT
ATGTTCACGTGCAGAG
GTGTTCACGTGGATAA
GCGTTCACGTGGTAAA
TTTTTCACGTGCTAGA

Relative binding free energy, 0.12 kcal/mol:
CTGGTCACGTGGAGGC
TGGTACACGTGATTTC
TGGTGCACGTGACGGA
TCTATCACGTGTATGT

Relative binding free energy, 0.14 kcal/mol:
TTTTTCACGTGCGGAA
GTGTGCACGTGATCAT
TTTGACACGTGACAGG
GTGGCCACGTGAGGGA

Relative binding free energy, 0.08 kcal/mol:
GGTAACACGTGGCGGG
AAAGGCACGTGATATA
TTAAGCACGTGATAGT
TGTGGCACGTGAGGAG
ATGATCACGTGGGCGA

Relative binding free energy, 0.02 kcal/mol:
CATGGCACGTGTGGGG
AGGTGCACGTGTCGGG
ACTGTCACGTGTGTAG
AGATGCACGTGTGGGT
TTTGACACGTGTTAAT

Relative binding free energy, -0.01 kcal/mol:
CGTTGCACGTGCAGGT
AAATGCACGTGGTAAT
CGTAGCACGTGTGGAG

Relative binding free energy, -0.09 kcal/mol:
TTTAGCACGTGTCGGG
CTGTCCACGTGGGGAT
GTTGACACGTGGCCGG
GGCTGCACGTGGGTCG
GCAGGCACGTGGCTTG
GAGGGCACGTGGTGTC

Relative binding free energy, 0.38 kcal/mol:
TAGTTCACGTGACGTA
GAGGTCACGTGAGATG
GTAGTCACGTGAGGAA

Relative binding free energy, 0.03 kcal/mol:
ATTTGCACGTGGACGG
GCGGGCACGTGTGACG
TATTGCACGTGGTTAC
CTGGACACGTGGCGGG
TCGTACACGTGTTTAG
ATGCTCACGTGGGTAT

Relative binding free energy, -0.14 kcal/mol:
GGGAGCACGTGTGCAG

Relative binding free energy, 0.16 kcal/mol:
GATATCACGTGGTTGT
CGGCTCACGTGGTCGG
TACTTCACGTGCGGTT
ATTATCACGTGTAGGG
AATTTCACGTGGGACT

Relative binding free energy, 0.32 kcal/mol:
AATTTCACGTGTTGGG
GGTTTCACGTGCATGG
GGTTGCACGTGAGTTA

Relative binding free energy, 0.26 kcal/mol:
TTCTTCACGTGGTTGC
GGTTCCACGTGTTTGA
GTCATCACGTGGATGG
TTCTGCACGTGAAGTT

Relative binding free energy, -0.22 kcal/mol:
AGGGGCACGTGGCTGT
GGTGGCACGTGCGCGC
AGGTGCACGTGGGCGG

Relative binding free energy, -0.2 kcal/mol:
GGATCCACGTGGTGTT

Relative binding free energy, -0.17 kcal/mol:
AAGGGCACGTGGGGCC

Relative binding free energy, -0.1 kcal/mol:
GCGGGCACGTGTATTG
TTGTGCACGTGGGTTA
CAAAACACGTGGGTTG
GTAGGCACGTGTTGTG
GAGGGCACGTGGTGGC
TTATACACGTGGTTAT

Relative binding free energy, 0.35 kcal/mol:
AATATCACGTGGTAGC
GGTCTCACGTGAGATG
GGAATCACGTGGATTT

Relative binding free energy, -0.16 kcal/mol:
GCAGGCACGTGGGAGT
GTGGGCACGTGCGAGG

Relative binding free energy, 0.42 kcal/mol:
TACATCACGTGTGATG

Relative binding free energy, 0.25 kcal/mol:
GTATTCACGTGTTTTG

Relative binding free energy, 0.24 kcal/mol:
TGGTCCACGTGAGATG
TGATTCACGTGGCTTT

Relative binding free energy, 0.43 kcal/mol:
TGAATCACGTGATGGA

Relative binding free energy, 0.06 kcal/mol:
TGAAGCACGTGATGTT
GTTGGCACGTGTGGAG
GTGCGCACGTGATCTG
CAGATCACGTGTTTGG
GGGCGCACGTGAGTAG
GTCGGCACGTGTGGGA

Relative binding free energy, 0.37 kcal/mol:
GTTTGCACGTGACGGC

Relative binding free energy, -0.05 kcal/mol:
GCCGGCACGTGGTTGA
GTGAGCACGTGGATTA
GAATACACGTGGGAGG
TTTAGCACGTGTTGGA

Relative binding free energy, -0.12 kcal/mol:
TGAGGCACGTGTCTAG
GGCGCCACGTGGGTTG
TGAACCACGTGGAGGG
TAGAGCACGTGTAGGA
GCTGACACGTGGGTTT

Relative binding free energy, 0.33 kcal/mol:
GTTTTCACGTGTTCTG

Relative binding free energy, 0.09 kcal/mol:
CGGGTCACGTGGTGGA
TCGGTCACGTGGGAAA

Relative binding free energy, 0.17 kcal/mol:
TTCGTCACGTGAAAGG
GTAAACACGTGTTTAG
TGTTACACGTGGCGAG
CTGTTCACGTGGGTTT
GGGTTCACGTGGGTTA

Relative binding free energy, 0.3 kcal/mol:
GTCTTCACGTGTTGAT
AGGTTCACGTGTATTC
TATTTCACGTGTAATG
AGATTCACGTGGTTCT
GTTTTCACGTGTTTGT
TATGTCACGTGAAGGG

Relative binding free energy, -0.19 kcal/mol:
TATAGCACGTGCTGTG
TTAGGCACGTGCTAGA
AGTAACACGTGGCGTT

Relative binding free energy, -0.29 kcal/mol:
GATGGCACGTGGGGCT
GGCCGCACGTGGGGTG

Relative binding free energy, -0.32 kcal/mol:
GCTGCCACGTGGGGGG

Relative binding free energy, -0.18 kcal/mol:
AGGAGCACGTGGCGTG
ATGAGCACGTGGTTAG

Relative binding free energy, 0.46 kcal/mol:
AGATTCACGTGAGTTG

Relative binding free energy, -0.06 kcal/mol:
TGTGGCACGTGATCGC
TAGCACACGTGCGGGG
TCTGGCACGTGTATTA
TTGGGCACGTGTGACA

Relative binding free energy, 0.05 kcal/mol:
ATGAGCACGTGTGTAG
TGTTCCACGTGTTTGT
TTAATCACGTGGTGCT

Relative binding free energy, -0.25 kcal/mol:
GGGAGCACGTGGTGCG

Relative binding free energy, -0.04 kcal/mol:
TTTCACACGTGGTATG
GTGTCCACGTGGTCGT

Relative binding free energy, 0.36 kcal/mol:
TGGCTCACGTGTAGTT

Relative binding free energy, 0.1 kcal/mol:
TTAATCACGTGCTGGT
TTTTACACGTGGCAGT
TTTATCACGTGGTGAT
ATTGCCACGTGAAGGT
TGTTTCACGTGTTTGC
AGTTTCACGTGGGCTT
GATATCACGTGGGTGA
TCTGTCACGTGGTGGC
AGTGTCACGTGATCAG

Relative binding free energy, -0.11 kcal/mol:
AATGCCACGTGGTTTG
TCTTGCACGTGGGGTG
TCATGCACGTGTGTTA
GTACGCACGTGTGGGC
GGGGGCACGTGGTGGT

Relative binding free energy, 0.01 kcal/mol:
GGTCACACGTGGGAGT
TCAGCCACGTGTGGGT
TAAGTCACGTGTATGC
TGAATCACGTGGGCGC
GTGGTCACGTGGGCTG

Relative binding free energy, 0.04 kcal/mol:
GGAGTCACGTGGGGCC
TCTGGCACGTGTGGGC
TAGGGCACGTGTGGGT
TAACTCACGTGGGGGT

Relative binding free energy, -0.08 kcal/mol:
GTGGCCACGTGTTTAT
GGGAGCACGTGCTGAT
GCGGGCACGTGTTTTG
TTAAGCACGTGGAATT
TGGGCCACGTGTTGAG
CTGGTCACGTGGTACG

Relative binding free energy, -0.03 kcal/mol:
GAATGCACGTGGTAGA
TTTTACACGTGGGTTG
TTCTGCACGTGTGGCA
TCGGTCACGTGGTATA
AAGTGCACGTGTAGCT
CGGCACACGTGTTGGT

Relative binding free energy, -0.02 kcal/mol:
TATTGCACGTGTTCGG
TGGGGCACGTGATTCA
TGTTGCACGTGGAAAT
GTTTGCACGTGGCACG

Relative binding free energy, 0.27 kcal/mol:
AAGTTCACGTGATTGT
GTCTACACGTGAGGGA

Relative binding free energy, 0.31 kcal/mol:
AAAGTCACGTGTAGAT

Relative binding free energy, -0.07 kcal/mol:
CACTGCACGTGGGGTT
ATTTGCACGTGTCGCT
ATTTGCACGTGTTCAA

Relative binding free energy, 0 kcal/mol:
TGATGCACGTGATGGG
GGTACCACGTGTTGCG
AATATCACGTGTTTGT
TGTTACACGTGTACTG

Relative binding free energy, -0.23 kcal/mol:
TCAGCCACGTGGTGGG
ACGGGCACGTGGGCTT
GGACGCACGTGGCGGT

Relative binding free energy, 0.22 kcal/mol:
CTTGTCACGTGTGCCT
ACGGTCACGTGATTTG

Relative binding free energy, 0.28 kcal/mol:
TTTCTCACGTGAGGTA
ATTTTCACGTGTTCGG
GGGGTCACGTGAGCGA
GTAGTCACGTGTGGTT
GGTTGCACGTGAGGGA

Relative binding free energy, 0.21 kcal/mol:
TTGTGCACGTGAGGGG
TATTTCACGTGCGGGA
TCTTACACGTGTGGTC
TAGCTCACGTGGTGTG
GACGGCACGTGTTAAG
AAATGCACGTGTAGGT
AATGTCACGTGGATTG
GGGTTCACGTGGTAGA
TTACACACGTGAGGGG
TAATTCACGTGGCTGT
AGCGACACGTGTTTTT

Relative binding free energy, -0.27 kcal/mol:
GAGAGCACGTGGCGGG

Relative binding free energy, 0.07 kcal/mol:
TGGATCACGTGGCAGT
TTCATCACGTGTGTGA
ATTGTCACGTGGTAGT
TATTCCACGTGTGTAT

Relative binding free energy, 0.13 kcal/mol:
TGTAGCACGTGAGAGT
AGCTTCACGTGGTAGT
GGAGTCACGTGTAGTA
TTATTCACGTGGACTT

Relative binding free energy, 0.11 kcal/mol:
GATATCACGTGTAATG
TTTCGCACGTGAGGTC
ATTGTCACGTGCGTGT

Relative binding free energy, 0.19 kcal/mol:
TTAATCACGTGTGGTT
GTTTTCACGTGTCCTT
TTTCTCACGTGTGTGC
GGTATCACGTGGGCCT
CTTTTCACGTGCAGTG

Relative binding free energy, 0.2 kcal/mol:
CATTGCACGTGTAGTA

Relative binding free energy, -0.15 kcal/mol:
GATGGCACGTGTGTCG
CATGGCACGTGGTCGT
TTGGACACGTGGCAGT
ATATGCACGTGGTTTT
GAGGGCACGTGGTAAT
CTAGTCACGTGGGTTT

Relative binding free energy, 0.52 kcal/mol:
GAGTTCACGTGTGGTA

Relative binding free energy, -0.13 kcal/mol:
TATGGCACGTGGTTTG
GTGGACACGTGCAGTT
CGGAGCACGTGGGTTT
CGGCACACGTGGGGGG
CGGTACACGTGGGGTC
GTCGGCACGTGGGAAT

Relative binding free energy, 0.18 kcal/mol:
AGCGTCACGTGAGTGG
TTACTCACGTGTAGTG

Relative binding free energy, 0.4 kcal/mol:
TATCACACGTGAAGGG
GTCATCACGTGACGGT
